In the RNAGym collection of RNA variant scans (doi:10.7554/elife.90254):
Read counts are not given, so values of variants with three or more changes are uncertain.

B1: LINE1-mini (parent)
chain: GGCAGAGCUCAACACAGCGUGGCAAAGUGGCUGUGGCUAGACUGCC

Variants of: B1
Assay: self-cleavage, relative activity (ratio to wild type); higher = more cleavage; in vitro, sequencing; the parent is a self-cleaving ribozyme

Row | Variant | self-cleavage
1 | G1U C13A G17C G40C U43C | 0.01
2 | G1U C15A G21C C23G G27A U28G | 0.01
3 | G1U C10A G29U G40U | 0.01
4 | G1U C8A A11C G36U | 0.02
5 | G1U C23G U34C | 0.08
6 | G1U C10G C23U U43A | 0.02
7 | G1U C13G U20A | 0.01
8 | G1U C8A A12G G30U C31G U34G | 0.08
9 | G1U G2A A6U C13U G19U G35U | 0.07
10 | G1U G5U G21U A41G | 0.02
11 | G1U G5U C10U G19U | 0.02
12 | G1U C10A A25G G30A C46G | 0.04
13 | G1U C13G C15U A16G G36C | 0.07
14 | G1U C3G U43C | 0.16
15 | G1U C3U G21U | 0.28
16 | G1U C3A G35U U38C | 0.23
17 | G1U C3U A4U G19A C37U | 0.04
18 | G1U C18U G35A A39G | 0
19 | G1U G5U C15A U28A G44A | 0.01
20 | G1U G2C G17U A24U G44U | 0.01
21 | G1U A14U A24C G40C | 0.07

Row | Variant | self-cleavage
22 | G1U C13G A14U A24C | 0.06
23 | G1U G5C C45A | 0.03
24 | G1U C13A G21A C45A | 0.1
25 | G1U G5C G7U | 0.11
26 | G1U C10G G36A G40U | 0.01
27 | G1U C23A C42A C45A | 0.03
28 | G1U C13U A26U U43A C46U | 0.14
29 | G1U C8U C10A C37U U43A | 0.01
30 | G1U A26U G30C C31U | 0.09
31 | G1U G2U A25U G27U U28G | 0.03
32 | G1U C10U G17C U34A | 0.11
33 | G1U C3A C10U A16G A24U G35A | 0.02
34 | G1U G5U G27C C42G | 0.06
35 | G1U C3G C13A G29U | 0.05
36 | G1U C10G U20C A25U U34C C42A | 0
37 | G1U C18A G30A C45A | 0.09
38 | G1U A26C C31G | 0
39 | G1U C10G A11G C23U G30A C37U | 0
40 | G1U A26G U32A | 0.06
41 | G1U G5C G22A G27A G30U U32G G33U | 0.04
42 | G1U C15G U34A G36A | 0

Row | Variant | self-cleavage
43 | G1U C18G G36U | 0.04
44 | G1U A16U C31G C37U C42U | 0.02
45 | G1U A16G C42U | 0.02
46 | G1U C3G G5U G36U | 0.16
47 | G1U G5U C8A A26G | 0.08
48 | G1U C31A C37G | 0.03
49 | G1U C15G C42U | 0.02
50 | G1U G2C C10A U28C A39G | 0
51 | G1U C10G G30A G44U | 0.02
52 | G1U A14G G29U | 0.3
53 | G1U A14G G29C | 0.29
54 | G1U C15A G19A G33C U38G C45A | 0.02
55 | G1U G2U C10U | 0.02
56 | G1U C3G A6C G7U | 0.06
57 | G1U C10U C18U G33U G36C | 0.01
58 | G1U A14U G40U | 0.01
59 | G1U C8G C45G | 0.01
60 | G1U A16U U20C G29U G33U G36C C37U A39U C42U | 0.01
61 | G1U A16C G21U U34C | 0.01
62 | G1U A26C A39C | 0.02
63 | G1U A24G G33U | 0

Row | Variant | self-cleavage
64 | G1U C8G A12C | 0.01
65 | G1U C10U G40U | 0.01
66 | G1U C10U A25C | 0.02
67 | G1U C3U C13U A25G G30U | 0.69
68 | G1U C13U C18A G40C | 0.01
69 | G1U C10A A24C U38G | 0.03
70 | G1U G2C C3U C31G C37A | 0.02
71 | G1U G2C A12G | 0
72 | G1U C10A C46G | 0.07
73 | G1U G2U G7U C8G A12C C31A G36A | 0.01
74 | G1U C8G A39G A41U | 0.03
75 | G1U G2A U20C G22C A24C U32C G33U C45A | 0.1
76 | G1U C8G G40C | 0.04
77 | G1U G7A C10U U20G G33A | 0.01
78 | G1U C8G U32G G35A G40A | 0.01
79 | G1U C8A C15A C18A G30U | 0.07
80 | G1U C10U C13A C18U G22U | 0.03
81 | G1U C8A A16C C46G | 0.03
82 | G1U C10A A41G | 0.02
83 | G1U C18A A24G G27C | 0.28
84 | G1U C23U U38G C42A C45U | 0.03
